The text below walks through data of PMC555569.

The chains behind the UniProt entries cited, without tags or fusion partners. Where a name states a change or a piece, a line headed by the entry shows the natural chain unless it says otherwise. A line that says so, or that is headed by a name, gives the form on record, which may keep a tag or linker. Residues count along the entry.
UniProt Q8WUW1: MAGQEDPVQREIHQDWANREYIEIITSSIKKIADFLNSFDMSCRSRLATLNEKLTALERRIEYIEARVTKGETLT
UniProt Q8IZP0: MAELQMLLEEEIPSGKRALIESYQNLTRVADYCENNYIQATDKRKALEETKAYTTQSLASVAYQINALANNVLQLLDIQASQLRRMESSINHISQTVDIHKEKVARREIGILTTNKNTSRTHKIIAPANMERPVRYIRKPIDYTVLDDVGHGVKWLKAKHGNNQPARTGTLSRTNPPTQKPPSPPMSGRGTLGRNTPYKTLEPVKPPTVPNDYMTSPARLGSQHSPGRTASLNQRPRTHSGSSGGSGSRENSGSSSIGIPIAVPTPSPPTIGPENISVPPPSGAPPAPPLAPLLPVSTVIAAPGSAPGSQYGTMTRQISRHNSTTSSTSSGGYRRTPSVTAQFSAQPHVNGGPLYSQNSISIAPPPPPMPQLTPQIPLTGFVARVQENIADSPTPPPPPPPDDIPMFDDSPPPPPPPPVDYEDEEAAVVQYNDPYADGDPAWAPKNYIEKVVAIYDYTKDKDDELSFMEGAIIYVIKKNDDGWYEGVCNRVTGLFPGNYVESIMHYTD
UniProt Q9Y6W5: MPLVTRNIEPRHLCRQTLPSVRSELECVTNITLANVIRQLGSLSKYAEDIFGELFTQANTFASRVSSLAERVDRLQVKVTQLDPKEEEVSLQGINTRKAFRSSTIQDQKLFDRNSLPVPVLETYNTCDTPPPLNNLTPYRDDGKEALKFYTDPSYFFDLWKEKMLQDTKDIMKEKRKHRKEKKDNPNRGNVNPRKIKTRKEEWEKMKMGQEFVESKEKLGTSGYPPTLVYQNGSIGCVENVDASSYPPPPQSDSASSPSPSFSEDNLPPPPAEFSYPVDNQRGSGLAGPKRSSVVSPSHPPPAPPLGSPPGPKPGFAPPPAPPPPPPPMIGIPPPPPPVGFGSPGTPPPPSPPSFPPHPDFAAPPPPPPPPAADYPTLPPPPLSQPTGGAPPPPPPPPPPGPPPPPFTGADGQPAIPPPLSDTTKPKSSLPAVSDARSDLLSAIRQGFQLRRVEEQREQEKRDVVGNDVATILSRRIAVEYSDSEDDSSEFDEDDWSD
GST-Scar2 SHD: residues 1-170 of Q9Y6W5
UniProt Q9UQB8: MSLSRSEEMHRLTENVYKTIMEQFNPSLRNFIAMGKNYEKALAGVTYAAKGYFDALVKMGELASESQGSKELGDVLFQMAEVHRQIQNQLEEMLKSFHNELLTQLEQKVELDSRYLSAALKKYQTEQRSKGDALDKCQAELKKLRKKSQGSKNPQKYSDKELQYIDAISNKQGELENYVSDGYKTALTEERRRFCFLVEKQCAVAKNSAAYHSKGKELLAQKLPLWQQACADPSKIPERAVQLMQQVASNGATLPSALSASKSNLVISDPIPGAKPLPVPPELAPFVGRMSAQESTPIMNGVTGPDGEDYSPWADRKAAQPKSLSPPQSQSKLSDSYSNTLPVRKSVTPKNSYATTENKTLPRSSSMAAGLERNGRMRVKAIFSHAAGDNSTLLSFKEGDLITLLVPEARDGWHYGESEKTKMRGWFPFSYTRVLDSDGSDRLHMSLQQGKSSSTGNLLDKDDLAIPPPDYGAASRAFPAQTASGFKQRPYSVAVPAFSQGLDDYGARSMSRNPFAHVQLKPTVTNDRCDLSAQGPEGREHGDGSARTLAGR
UniProt P60953: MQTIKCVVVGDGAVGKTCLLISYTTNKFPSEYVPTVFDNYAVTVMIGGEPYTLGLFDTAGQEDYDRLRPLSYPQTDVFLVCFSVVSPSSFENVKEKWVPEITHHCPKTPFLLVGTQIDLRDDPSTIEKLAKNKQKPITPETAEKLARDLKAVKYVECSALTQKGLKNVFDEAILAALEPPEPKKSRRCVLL
constitutively active GST-L61 Cdc42 (P60953, form named): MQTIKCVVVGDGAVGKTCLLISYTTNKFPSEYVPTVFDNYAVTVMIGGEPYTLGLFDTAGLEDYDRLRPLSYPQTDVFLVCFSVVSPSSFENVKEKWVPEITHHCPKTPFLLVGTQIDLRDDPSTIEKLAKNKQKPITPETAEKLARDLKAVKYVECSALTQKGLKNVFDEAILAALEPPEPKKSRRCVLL
UniProt Q8CBW3: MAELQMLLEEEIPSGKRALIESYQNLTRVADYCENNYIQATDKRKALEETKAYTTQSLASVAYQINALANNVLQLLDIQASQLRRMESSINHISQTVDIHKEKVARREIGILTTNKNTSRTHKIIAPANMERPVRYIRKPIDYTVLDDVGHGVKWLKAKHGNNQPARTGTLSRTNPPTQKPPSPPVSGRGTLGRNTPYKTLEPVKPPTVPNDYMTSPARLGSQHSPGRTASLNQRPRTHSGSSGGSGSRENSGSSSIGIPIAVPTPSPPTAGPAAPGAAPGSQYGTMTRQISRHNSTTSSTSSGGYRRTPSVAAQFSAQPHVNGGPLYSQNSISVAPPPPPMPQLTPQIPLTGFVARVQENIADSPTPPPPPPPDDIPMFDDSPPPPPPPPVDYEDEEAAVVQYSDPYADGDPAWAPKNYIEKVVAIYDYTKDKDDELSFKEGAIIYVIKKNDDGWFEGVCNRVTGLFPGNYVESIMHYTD

Assay [1] has as its target pYTH9-HSPC300 (GAL4 DNA-binding domain fusion of HSPC300) (UniProt Q8WUW1). Kind of assay: two-hybrid; yeast two-hybrid; Abi1 or HSPC300 on the GAL4 DNA-binding domain (pYTH9), Scar1 constructs on the GAL4 activation domain (pACT-II); beta-Gal reporter gene assay. A general note: A reporter such as luciferase makes a cellular process visible.
Assay [2] has as its target pYTH9-Abi1 (GAL4 DNA-binding domain fusion of Abi1) (UniProt Q8IZP0). Described as above.
Assay [3] concerns the target T1, Scar/WAVE3 (endogenous, mouse brain extract) (mouse (endogenous in mouse brain)) (UniProt Q8VHI6).
T1 sequence: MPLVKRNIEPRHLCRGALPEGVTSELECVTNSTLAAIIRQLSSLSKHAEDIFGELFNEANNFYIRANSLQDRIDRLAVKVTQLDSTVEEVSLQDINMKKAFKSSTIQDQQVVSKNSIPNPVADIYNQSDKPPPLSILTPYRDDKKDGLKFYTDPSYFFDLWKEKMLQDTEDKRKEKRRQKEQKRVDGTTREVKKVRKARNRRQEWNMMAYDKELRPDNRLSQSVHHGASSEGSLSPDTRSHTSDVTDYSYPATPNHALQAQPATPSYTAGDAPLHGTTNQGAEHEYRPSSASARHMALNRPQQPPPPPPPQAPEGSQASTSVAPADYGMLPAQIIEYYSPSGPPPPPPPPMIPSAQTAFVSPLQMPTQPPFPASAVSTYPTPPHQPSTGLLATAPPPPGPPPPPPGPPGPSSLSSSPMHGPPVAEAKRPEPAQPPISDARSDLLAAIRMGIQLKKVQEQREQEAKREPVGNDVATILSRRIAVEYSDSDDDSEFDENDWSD
Kind of assay: co-IP; mouse brain extract (1% Triton X-100 lysis buffer, 500 ug total protein); anti-Abi1 or anti-Scar/WAVE3 antibody and protein G beads; immunoblot; controls without antibody or with an unrelated antibody. For orientation: A western blot detects proteins with antibodies after separation by electrophoresis.

The next assay addresses Myc-Scar2 SHD (human) (UniProt Q9Y6W5). Kind of assay: co-IP; lysates of Cos7 cells co-transfected with Myc-Scar SHD and HA-Abi1 or HA-HSPC300; 9E10 anti-Myc and protein G beads; immunoblot; controls without antibody or with empty pRK5-Myc vector.
The target in a further assay is GST-Scar2 SHD (human) (UniProt Q9Y6W5). In words: pull-down; GST-Scar SHD or GST alone on glutathione-s-agarose beads, incubated 1 hour with 500 ug lysate of Cos7 cells transfected with HA-Abi1 or HA-HSPC300; 1% Triton lysis buffer; immunoblot; only the target purified.
The target of another assay is GST-IRSp53 (UniProt Q9UQB8). Kind of assay: pull-down; equivalent amounts of GST-IRSp53 or GST-L61 Cdc42 on glutathione-s-agarose beads, incubated with lysates of Cos cells transfected with Myc-Scar1, 2 or 3; immunoblot with 9E10 anti-Myc; only the target purified.
Assay [4] addresses constitutively active GST-L61 Cdc42 (UniProt P60953). The description is as above.
The target in assay [5] is Abi1 (endogenous, mouse brain extract) (mouse (endogenous in mouse brain)) (UniProt Q8CBW3). In words: co-IP; mouse brain extract (1% Triton X-100 lysis buffer, 500 ug total protein); anti-Abi1 or anti-Scar/WAVE3 antibody and protein G beads; immunoblot; controls without antibody or with an unrelated antibody.

No constants are given. Whether binding was seen depends on the method and setting. For some assays here: Binding seen in cells or lysates may run through a third protein. Some entries that bind do so weakly or less than the wild type.

For “pAct-Scar1 Full Length (FL) (from UniProt Q92558 1-559)”, the binding entry in assay [1] and in assay [2] was “binds” each time.

“Abi1 (endogenous, mouse brain extract) (from UniProt Q8CBW3 1-481)”: the binding entry in assay [3] is “binds”.

HA-Abi1 (from UniProt Q8IZP0 1-508): the binding result with Myc-Scar2 SHD (human) and with GST-Scar2 SHD (human) was “binds” each time.

Myc-Scar2 (from UniProt Q9Y6W5 1-498): the results for the binding result (in the assay with GST-IRSp53; in assay [4]) were “binds” and “no binding”, respectively. For the molecule Myc-Scar1 (from UniProt Q92558 1-559), the binding entry in the assay with GST-IRSp53 is given as “binds”; in assay [4], “no binding”.

B1: Scar/WAVE3 (endogenous, mouse brain extract) (protein, UniProt Q8VHI6 1-501)
chain: MPLVKRNIEPRHLCRGALPEGVTSELECVTNSTLAAIIRQLSSLSKHAEDIFGELFNEANNFYIRANSLQDRIDRLAVKVTQLDSTVEEVSLQDINMKKAFKSSTIQDQQVVSKNSIPNPVADIYNQSDKPPPLSILTPYRDDKKDGLKFYTDPSYFFDLWKEKMLQDTEDKRKEKRRQKEQKRVDGTTREVKKVRKARNRRQEWNMMAYDKELRPDNRLSQSVHHGASSEGSLSPDTRSHTSDVTDYSYPATPNHALQAQPATPSYTAGDAPLHGTTNQGAEHEYRPSSASARHMALNRPQQPPPPPPPQAPEGSQASTSVAPADYGMLPAQIIEYYSPSGPPPPPPPPMIPSAQTAFVSPLQMPTQPPFPASAVSTYPTPPHQPSTGLLATAPPPPGPPPPPPGPPGPSSLSSSPMHGPPVAEAKRPEPAQPPISDARSDLLAAIRMGIQLKKVQEQREQEAKREPVGNDVATILSRRIAVEYSDSDDDSEFDENDWSD
Consider B1, for which, in assay [5], the binding result is “binds”.

B2: Scar/WAVE1 (endogenous, mouse brain extract) (protein, UniProt Q8R5H6 1-559)
chain: MPLVKRNIDPRHLCHTALPRGIKNELECVTNISLANIIRQLSSLSKYAEDIFGELFNEAHSFSFRVNSLQERVDRLSVSVTQLDPKEEELSLQDITMRKAFRSSTIQDQQLFDRKTLPIPLQETYDVCEQPPPLNILTPYRDDGKEGLKFYTNPSYFFDLWKEKMLQDTEDKRKEKRKQKQKNLDRPHEPEKVPRAPHDRRREWQKLAQGPELAEDDADLLHKHIEVANGPASHYETRPQTYVDHMDGSYSLSALPFSQMSELLTRAEERVLVRPHEPPPPPPMHGAGDAKPTPTCISSATGLIENRPQSPAAGRTPVFVSPTPPPPPPPLPSALSTSSLRASMTSTPPPPVPPPPPPPATALQAPAVPPPPAPLQIAPGVLHPAPPPIAPPLVQPSPPVARAAPVCETVPVHPLPQGEVQGLPPPPPPPPLPPPGIRPSSPVAVAALAHPPSGLHPAPSTAPGPHAPLMPPSPPSQVLPASEPKRHPSTLPVISDARSVLLEAIRKGIQLRKVEEQREQEAKHERIENDVATILSRRIAVEYSDSEDDSEFDEVDWLE
With B2, the binding result in assay [5] was “binds”.
